Experimental data as given in PubChem BioAssay AID686970 (National Center for Advancing Translational Sciences (NCATS), 2013).
The whole screen tested about 360,000 compounds, of which about 6,000 (1.7%) were called active. This list was built around the results that the source calls inconclusive (neither active nor inactive); the mix of calls is not that of the screen. Calls come from the whole dose curve; as a rule, active = well fitted cell-killing curve with a large enough effect; inconclusive = small, poorly fitted or top-dose-only effect, or effect the other way; inactive = flat fitted curve, though single readings scatter. No potency is given beside an inconclusive call; the fits are too rough.
Potency is the fitted concentration of half-maximal effect; tags give direction and shape of the fitted curve.

Experiment: qHTS for induction of synthetic lethality in tumor cells producing 2HG: qHTS for the HT-1080-NT fibrosarcoma cell line;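 note: NT is the 2HG producing partner of a matched IDH1 knockdown line; nearly all actives have a fitted effect of over 55% in size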;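 for activity, negative = less viability: 0% = DMSO-treated cells and -100% = media-only wells without cells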
Conditions: HT-1080-NT fibrosarcoma viability, CellTiter-Glo ATP luminescence, 48 h; activity, negative = less viability: at 46.1 µM (top of the series) unless noted
Outline: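 Compounds were tested in concentration-response format on HT-1080-NT cells for 48 hours at 37 degrees C. Cell viability came from CellTiter-Glo luminescence; curves were classified by r2, response magnitude and activity.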
In the case of `COCC(C)Nc1nc(C)c(C(C)=O)s1` (stereo not drawn), the Potency is reported as “inactive”.
With `CCCCOC(=O)NC1CCS(=O)(=O)C1` (stereo not drawn) the Potency was “inactive”.
With `O=C(CSc1nc(-c2ccco2)cc(C(F)(F)F)n1)Nc1ccc2c(c1)OCO2` the Potency was inconclusive [cytotoxic, partial curve].
For `CCN(CC(=O)NCCCN1CCOCC1)S(=O)(=O)c1ccc(F)cc1`, the Potency was “inactive”.
With `CCCCOc1ccc(NC2=NC3(CCCCC3)N=C(N)N2)cc1` the Potency was inconclusive [cytotoxic, single point].
With `O=C(CCS(=O)(=O)c1ccc(Br)cc1)Nc1ccc2c(c1)OCO2` the Potency was inconclusive [cytotoxic, single point].
For `CC(C)c1ccc(/C=N/n2cnnc2)cc1`, the Potency was “inactive”.
In the case of `CCn1cc(C(=O)NN)c(=O)c2cc(F)c(N3CCOCC3)cc21`, the Potency is reported as “inactive”.
With `CNC(=O)C1Cc2c(-c3ccc(Cl)cc3)ccnc2O1` (stereo not drawn) the Potency was inconclusive [rising, single point].
With `COCCCNc1nc2ccccc2[nH]c1=O` the Potency was “inactive”.
For `CCCCCOC(=O)Nc1nnc(CCCCC)s1`, the Potency was inconclusive [rising, single point].
For `CCC(C)c1ccccc1NC(=O)CN(C)CCOc1ccc(Cl)cc1` (stereo not drawn), the Potency was inconclusive [cytotoxic, single point].
In the case of `Cc1nn(Cc2ccc(F)cc2)c(C)c1NC(=O)c1cc2ncc(Br)cn2n1`, the Potency is reported as inconclusive [rising, single point].
With `Cc1ccccc1NC(=O)Cc1nc(COC(=O)c2ccc(Cl)c(S(N)(=O)=O)c2)cs1` the Potency was “inactive”.
In the case of `CC(C)C(=O)N1CCN(c2ccc(NC(=O)c3ccc([N+](=O)[O-])o3)cc2)CC1`, the Potency is reported as active: 11.6 µM.
With `Cc1cc(NC(=O)c2sc(Nc3ccc(F)c(Cl)c3)nc2N)no1` the Potency was inconclusive [cytotoxic, single point].
For `OCCNCCCOc1cc(Cl)ccc1Cl`, the Potency was inconclusive [cytotoxic, single point].
In the case of `COc1cccc(NS(=O)(=O)c2c(C)cc(C)cc2C)c1`, the Potency is reported as inconclusive [cytotoxic, single point].
In the case of `COc1ccc(-n2cc(C#N)c(=O)n(Cc3ccc(F)cc3)c2=O)cc1`, the Potency is reported as inconclusive [cytotoxic, partial curve].
With `CN(C)S(=O)(=O)c1ccc(C(=O)NCc2cccs2)cc1` the Potency was “inactive”.
With `Cc1cccc2sc(N(CCCN(C)C)C(=O)CCS(=O)(=O)c3ccccc3)nc12` the Potency was inconclusive [cytotoxic, single point].
With `O=C(Nc1ccc(S(=O)(=O)N2CCOCC2)cc1)c1ccc([N+](=O)[O-])o1` the Potency was active: 18.4 µM.
In the case of `CC1=NN(c2ccccc2C(=O)O)C(=O)C1N=Nc1ccccc1` (stereo not drawn), the Potency is reported as “inactive”.
For `O=C(Nc1nc(-c2ccc(Cl)cc2Cl)cs1)c1ccc(OCC2CCCO2)cc1` (stereo not drawn), the Potency was inconclusive [cytotoxic, partial curve].
For `CC1=C/C(=N\OS(=O)(=O)c2ccccc2)C(C(C)C)=CC1=O`, the Potency was inconclusive [cytotoxic, single point].
For `CN(Cc1ccccc1)C(=O)N1CCOCC1`, the Potency was “inactive”.
With `C=CCOc1ccc(C(=O)/C=C2/C(=O)Nc3ccccc32)cc1` the Potency was inconclusive [cytotoxic, partial curve].
For `CCOc1cc(/C=N/O)cc(Br)c1OCc1ccc(Cl)cc1`, the Potency was inconclusive [cytotoxic, single point].
For `CCS(=O)(=O)c1ccc(NC(=O)c2ccccc2Cl)c(O)c1`, the Potency was “inactive”.
With `O=C(N/N=C/c1ccc(O)cc1)c1cc(-c2ccc3c(c2)OCO3)n[nH]1` the activity, negative = less viability was inconclusive: 0% [cytotoxic].
In the case of `CC[C@@H](C)[C@H](CNC)NC[C@@H](Cc1cccc2ccccc12)NCCc1cccc(C(F)(F)F)c1`, the Potency is reported as inconclusive [cytotoxic, single point].
With `CCOC(=O)N(C)c1c(CC)nc2c(OCC(=O)C(C)(C)C)cccn12` the Potency was “inactive”.
For `CC(Nc1cc(N2CCN(C(=O)C(C)(C)C)CC2)ccc1[N+](=O)[O-])c1ccccc1` (stereo not drawn), the Potency was “inactive”.
For `O=C(NCCN1C(=O)S/C(=C\c2ccc(OC(F)F)cc2)C1=O)c1cnccn1`, the Potency was inconclusive [cytotoxic, full curve].
For `Cc1ccccc1OCCCCn1c(CO)nc2ccccc21`, the Potency was inconclusive [cytotoxic, single point].
In the case of `COC(=O)c1ccccc1C(=O)c1cccc2ccccc12`, the Potency is reported as inconclusive [cytotoxic, single point].
With `O=C1CCN(Cc2ccc([N+](=O)[O-])cc2)CCN1[C@H](CO)c1ccccc1` the Potency was “inactive”.
For `Cc1nc2c(OCc3ccc(Cl)cc3)cccn2c1N(C)Cc1cccs1`, the Potency was active: 16.4 µM.
With `Cc1cnc(C(=O)N2CCCC(N3CCN(c4ccccc4C)CC3)C2)cn1` (stereo not drawn) the Potency was “inactive”.
With `COCCn1c(C)cc(C(=O)COc2nc3ccccc3nc2C)c1C` the Potency was “inactive”.
With `CC[C@]1(O)C[C@@H]2CN(CCc3c([nH]c4ccccc34)[C@@](C(=O)OC)(c3cc4c(cc3OC)N(C)[C@H]3[C@@](O)(C(=O)OC)[C@H](OC(C)=O)[C@]5(CC)C=CCN6CC[C@]43[C@@H]65)C2)C1` the Potency was active: 0.082 µM.
With `CC(=O)c1cccc(Nc2cc(C)nc3ccc(C)cc23)c1` the Potency was active: 18.4 µM.
In the case of `O=C(Nc1cccc(C(F)(F)F)c1)C1Cc2c(-c3ccccc3Oc3ccccc3)ccnc2O1` (stereo not drawn), the Potency is reported as inconclusive [cytotoxic, single point].
In the case of `CN(C)S(=O)(=O)N1CCC(Oc2cccc(C(=O)N3CCCCCCC3)c2)CC1`, the Potency is reported as “inactive”.
With `Cc1ccc(Cl)cc1N1CCN(C(=O)c2noc(C)c2[N+](=O)[O-])CC1` the Potency was inconclusive [cytotoxic, full curve].
In the case of `Nn1c(Cc2cccc3ccccc23)nnc1SCc1c(F)cccc1Cl`, the Potency is reported as “inactive”.
With `O=[N+]([O-])c1ccc(N/N=C/c2ccccc2)cc1` the Potency was inconclusive [cytotoxic, single point].
In the case of `O=C(Nc1nc(-c2ccccc2)ns1)c1cccs1`, the Potency is reported as inconclusive [cytotoxic, single point].
